Hit rate of the full screen: of about 310,000 compounds, about 2,200 (0.71%) showed an effect of 50% or more. The effect is printed as a negative number. The list shows a part of the results.

The assay deals with human ether-à-go-go-related gene (hERG) potassium channel (human, UniProt Q12809). Put plainly: primary screen, population patch clamp on CHO cells stably expressing hERG.
human ether-à-go-go-related gene (hERG) potassium channel, sequence (Q12809 whole entry, looked up): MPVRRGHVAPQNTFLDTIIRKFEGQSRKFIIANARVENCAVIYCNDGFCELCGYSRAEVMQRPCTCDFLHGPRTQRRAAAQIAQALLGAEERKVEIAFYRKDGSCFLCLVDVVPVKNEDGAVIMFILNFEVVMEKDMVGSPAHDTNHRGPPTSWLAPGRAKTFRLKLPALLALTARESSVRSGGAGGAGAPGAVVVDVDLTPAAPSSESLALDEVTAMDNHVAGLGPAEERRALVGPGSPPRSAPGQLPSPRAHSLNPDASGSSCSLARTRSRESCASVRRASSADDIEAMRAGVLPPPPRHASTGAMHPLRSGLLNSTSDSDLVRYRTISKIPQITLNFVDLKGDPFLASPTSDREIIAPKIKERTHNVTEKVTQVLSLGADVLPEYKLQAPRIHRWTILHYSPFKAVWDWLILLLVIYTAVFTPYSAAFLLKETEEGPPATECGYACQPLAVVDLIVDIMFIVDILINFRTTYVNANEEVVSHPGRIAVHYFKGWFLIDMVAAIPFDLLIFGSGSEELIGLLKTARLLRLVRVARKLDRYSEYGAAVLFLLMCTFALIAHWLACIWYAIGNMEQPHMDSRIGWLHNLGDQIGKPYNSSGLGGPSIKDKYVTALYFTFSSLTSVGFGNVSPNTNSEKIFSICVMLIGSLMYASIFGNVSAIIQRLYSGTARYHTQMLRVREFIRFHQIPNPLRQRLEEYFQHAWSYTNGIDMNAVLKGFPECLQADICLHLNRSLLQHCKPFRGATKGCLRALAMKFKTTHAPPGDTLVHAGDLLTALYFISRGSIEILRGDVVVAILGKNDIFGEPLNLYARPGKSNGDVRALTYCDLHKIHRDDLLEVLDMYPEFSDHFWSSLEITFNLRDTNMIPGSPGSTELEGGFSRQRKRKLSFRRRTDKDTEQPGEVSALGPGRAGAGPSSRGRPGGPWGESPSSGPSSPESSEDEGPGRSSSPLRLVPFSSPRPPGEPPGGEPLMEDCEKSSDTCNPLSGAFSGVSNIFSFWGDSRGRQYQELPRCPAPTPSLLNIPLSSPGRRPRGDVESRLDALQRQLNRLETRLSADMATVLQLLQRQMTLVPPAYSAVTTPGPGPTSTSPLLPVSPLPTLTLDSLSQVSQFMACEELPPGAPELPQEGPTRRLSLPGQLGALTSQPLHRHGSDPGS
As to `CN(C)CCN(C(=O)/C=C/c1cccs1)c1nc2ccc(Br)cc2s1.Cl`, the “hERG current change (%, negative = inhibition) at 1uM” value is 9.52%.

Take `Cc1onc(-c2ccccc2)c1C(=O)Nc1cccc(OC(C)C)c1`: the “hERG current change (%, negative = inhibition) at 1uM” value is given as -9.18%. The result for `COC(=O)C1=C(c2cc3ccccc3o2)C[C@@H]2CC[C@H]1N2C(=O)NCc1ccco1` reads 12.4%; that for `Fc1ccc(-c2ccc(/C=N/n3cnnc3)o2)cc1`, 7.73%. The result for `CCS(=O)(=O)N1CCC(C(=O)N2CCOCC2)CC1` reads 15.1%; that for `C=CCNc1nc(-c2cc3ccccc3o2)cs1`, 7.97%; that for `COc1ccc(/C(C)=N/NC(=O)CNC(=O)c2cccs2)cc1`, 7.37%.

As for `COc1ccccc1C(=O)Nc1ccccc1N1CCN(S(C)(=O)=O)CC1`, the “hERG current change (%, negative = inhibition) at 1uM” value is -7.72%. The result for `Cc1ccccc1SCC(=O)NNC(=O)c1ccncc1` reads 3.18%; that for `N=c1c2c(-c3ccccc3)c(-c3ccccc3)n(Cc3ccco3)c2ncn1CCCN1CCOCC1`, -91.3%.

Regarding `CCCCNS(=O)(=O)c1ccc(OCC(=O)N2CCN(Cc3ccc4c(c3)OCO4)CC2)cc1`, the “hERG current change (%, negative = inhibition) at 1uM” value is -3.5%. For `OC(CNc1nc2ccccc2s1)c1ccccc1` (centres unmarked), the “hERG current change (%, negative = inhibition) at 1uM” value is listed as 3.87%. For the compound `Cc1ccccc1C(O)c1ccccn1` (centres unmarked), the “hERG current change (%, negative = inhibition) at 1uM” value amounted to 17.2%. As to `C=C(C)[C@H]1CC=C(C)C(=O)C1`, the “hERG current change (%, negative = inhibition) at 1uM” value is on record as 14.4%. The result for `N#Cc1ccc(OCC(=O)OCC(=O)Nc2ccc(N3CCOCC3)cc2)cc1` reads -0.974%; that for `CC(C)N(C(=O)Cn1c(Cl)nc2ccccc21)C(C)C`, 7.66%. With `O=C(CN1C(=O)C2C3C=CC(C3)C2C1=O)NCCc1ccccc1` (centres unmarked), the “hERG current change (%, negative = inhibition) at 1uM” value was 11.7%. The result for `N/C(=N\OC(=O)c1cccc2ccccc12)c1cccc([N+](=O)[O-])c1` reads 10.2%; that for `O=C(NC(=S)NCc1nc2ccccc2[nH]1)c1ccc(F)cc1`, 6.9%. Consider `O=C(CSc1ncccn1)n1c2c(c3ccccc31)CCCC2`, for which the “hERG current change (%, negative = inhibition) at 1uM” value was determined as 7.64%.

`O=C1C=C(c2ccccc2)C[C@@H](c2ccc3c(c2)OCO3)C1`: the “hERG current change (%, negative = inhibition) at 1uM” value is listed as 11.4%. The result for `Oc1cccc2cnccc12` reads 7.8%. Consider `C/C(O)=c1/ccc2cccc3nc(C)nc1c23`, for which the “hERG current change (%, negative = inhibition) at 1uM” value is 7.91%. The result for `CC(=O)Nc1ccc2nc(SCC(=O)N3CCOCC3)sc2c1` reads 17.4%; that for `CC(=O)N1CCN(S(=O)(=O)c2cccc(C(=O)Nc3ccccc3N3CCOCC3)c2)CC1`, 7.37%. Consider `COc1ccc(CCCC(=O)O)c(C)c1`, for which the “hERG current change (%, negative = inhibition) at 1uM” value stood at 20.9%. The result for `Cl.O=C(CN1CCCCC1)NCC1(c2ccccc2)CCCC1` reads 5.17%; that for `CCCCc1nnc(NC(=O)CCS(=O)(=O)Cc2ccccc2)s1`, 15.5%; that for `O=C(COc1ccc(Cl)cc1)NCc1nnc(SCC(=O)NCC2CCCO2)o1` (centres unmarked), 10.9%. The result for `CCN(CC)S(=O)(=O)c1cc(-c2nnc(-c3ccc(Br)cc3)o2)ccc1Cl` reads -1.98%; that for `CC(=O)NC1CC2CCC(C1)N2Cc1ccc(C)cc1` (centres unmarked), -0.57%; that for `COc1ccccc1Nc1ncnc2c1oc1ccccc12.Cl`, 16.8%. Turning to `CCn1c(N2CCN(Cc3ccc([N+](=O)[O-])cc3)CC2)nc2ccccc21.Cl`, the “hERG current change (%, negative = inhibition) at 1uM” value is on record as -81.2%. As to `CCc1nn2c(NCCOC)cc(C)nc2c1-c1ccc(F)cc1`, the “hERG current change (%, negative = inhibition) at 1uM” value was 5.3%. The result for `N=C1C(c2ccccc2)=C(O)C2CCc3ccccc3N12` (centres unmarked) reads 12.2%. The result for `Cc1cccc(NC(=O)CN(c2ccc(C(C)C)cc2)S(=O)(=O)c2c(C)nn(C)c2C)n1` reads 9.84%; that for `Cc1ccc(/C=N/n2cc(-c3ccccc3)[nH]c2=S)s1`, 12.3%. The result for `CCOC(=O)c1ccccc1NC(=O)C1CCCO1` (centres unmarked) reads 11.3%; that for `CSc1nc(-c2ccc(Cl)cc2)c(C#N)c(=O)n1C`, 5.02%; that for `O=C(NCCS(=O)(=O)c1ccc(Br)cc1)c1ccccc1Cl`, -3.15%. Turning to `CCCc1ccccc1OCCNC(=O)c1cc(=O)n(C)c(=O)n1C`, the “hERG current change (%, negative = inhibition) at 1uM” value stood at 3.36%.

As to `O=C(CSc1nncc2ccccc12)Nc1ccc(F)cc1`, the “hERG current change (%, negative = inhibition) at 1uM” value came to 15.4%. `CCCN1CCC2(CC1)NC(CO)(CO)CO2`: the “hERG current change (%, negative = inhibition) at 1uM” value is on record as 12.7%. The result for `Cc1ccc(C(=O)N2CCOCC2)c(F)c1F` reads 3.08%.

In the case of `O=C(Cc1ccc(Cl)cc1)NCC(=O)N1CCCCCC1`, the “hERG current change (%, negative = inhibition) at 1uM” value is given as 4.89%. The result for `Oc1ccc(C[C@H]2NCCc3cc(O)c(O)cc32)cc1O` reads 2.49%; that for `O=C(Nc1cccc(-n2cnnn2)c1)c1cc(Cl)ccc1Cl`, 10.6%.

These data come from publication PMC4336329 (PLoS ONE, 2015).
